Source: the supplement of paper PMC3334620
Over roughly 33,000 sequences, “E-score (-0.5 to 0.5)” has its median near -0.035; the highest 2% begin near 0.35. This is one part of the list.

What follows are sequences tested against T1, Pdr3 (UniProt P33200) (assay: PBM E-score (8-mer binding enrichment) (E-score (-0.5 to 0.5)); higher = stronger / more preferred TF binding; most listed sequences are background and not binding sites). Conditions: protein concentration: 200 nM; construct: GST-full length.
T1 sequence: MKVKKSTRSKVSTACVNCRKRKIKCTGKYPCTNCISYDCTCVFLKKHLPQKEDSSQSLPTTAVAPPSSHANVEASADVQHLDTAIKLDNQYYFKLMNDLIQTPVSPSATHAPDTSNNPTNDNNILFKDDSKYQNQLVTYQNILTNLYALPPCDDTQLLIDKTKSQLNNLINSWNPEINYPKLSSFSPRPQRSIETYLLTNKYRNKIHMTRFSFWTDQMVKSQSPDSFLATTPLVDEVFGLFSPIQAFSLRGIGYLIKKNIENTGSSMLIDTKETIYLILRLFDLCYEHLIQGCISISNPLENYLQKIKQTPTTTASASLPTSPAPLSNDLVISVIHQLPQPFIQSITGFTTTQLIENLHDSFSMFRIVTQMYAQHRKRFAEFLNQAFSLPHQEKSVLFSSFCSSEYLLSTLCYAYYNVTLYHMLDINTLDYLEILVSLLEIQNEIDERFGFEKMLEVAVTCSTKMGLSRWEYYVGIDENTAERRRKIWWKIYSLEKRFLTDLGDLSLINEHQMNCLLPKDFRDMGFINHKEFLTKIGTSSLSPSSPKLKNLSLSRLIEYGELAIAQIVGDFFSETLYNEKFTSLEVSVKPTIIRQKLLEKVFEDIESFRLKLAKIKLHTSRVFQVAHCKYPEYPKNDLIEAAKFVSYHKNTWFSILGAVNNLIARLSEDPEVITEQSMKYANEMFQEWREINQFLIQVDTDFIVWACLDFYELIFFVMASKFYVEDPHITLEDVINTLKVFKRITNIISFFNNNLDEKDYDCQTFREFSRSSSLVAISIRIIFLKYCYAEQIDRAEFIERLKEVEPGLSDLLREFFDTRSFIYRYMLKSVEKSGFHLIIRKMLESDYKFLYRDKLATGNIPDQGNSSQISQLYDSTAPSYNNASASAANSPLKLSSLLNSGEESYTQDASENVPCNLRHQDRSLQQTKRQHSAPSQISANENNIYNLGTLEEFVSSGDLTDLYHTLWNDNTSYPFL
Method: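 Universal 'all 10-mer' protein binding microarrays (Agilent AMADID 015681) probed with GST-tagged S. cerevisiae TFs (full-length or DBD) made by in vitro transcription/translation (PURExpress), about 100-200 nM. Bound TF was detected with fluorescent anti-GST. Each ungapped 8-mer (which stands for itself and its reverse complement) is scored by the PBM enrichment score (E-score), a modified Wilcoxon-Mann-Whitney statistic from -0.5 to +0.5, computed with the Universal PBM Analysis Suite. Scale: above 0.35 generally sequence-specific binding.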

Row | Sequence | PBM E-score
1 | CGCGGTCA | 0.307
2 | ACTTACAG | -0.259
3 | ACATCGGG | -0.0215
4 | GAACCTAC | -0.0296
5 | ACTTAGTA | 0.0349
6 | AAGCCTGA | -0.284
7 | GTACTAGA | 0.0176
8 | AATACGAT | -0.153
9 | CCGATGCA | 0.143
10 | CCGGATCA | 0.389
11 | GTTGGCGA | 0.0642
12 | CAGTCTCG | -0.203
13 | ATACAGGG | 0.102
14 | CTCTACTA | -0.182
15 | ATACGCGA | -0.0933
16 | CCAGCTAG | -0.33
17 | AGAAGAAG | 0.0175
18 | CTCAGGCA | 0.0505
19 | CCTGTGCC | -0.0891
20 | GATAGCGA | -0.08
21 | ATACCGCA | 0.0658
22 | CTGGTCCA | -0.064
23 | CAGGCGGC | 0.0461
24 | CATATCGA | 0.0824
25 | GGTTGGGA | -0.0649

Row | Sequence | PBM E-score
26 | CTCAACAC | -0.035
27 | CGGCTTGC | 0.197
28 | AACACAGC | 0.125
29 | ATCTATAC | -0.0121
30 | CCACTCCC | 0.152
31 | ACCGTTGA | -0.0585
32 | CTGACCCC | -0.131
33 | ACACTTAT | -0.0908
34 | ACCGTACT | 0.00717
35 | AATCCTCT | -0.246
36 | CACTTCAG | -0.0576
37 | GGAAGGAA | 0.182
38 | AGTCCCTC | -0.109
39 | ACTCCGTC | 0.206
40 | GCCCGAAC | 0.255
41 | AGCTAGCC | -0.148
42 | CCTCAACC | -0.118
43 | CTCTCGGC | 0.118
44 | AAGTGGGA | 0.12
45 | GGTAGTAC | -0.0784
46 | CTCCCGCA | 0.145
47 | GACATCAA | 0.106
48 | ACCCACCC | 0.34
49 | AGAAAGCA | 0.0552
50 | TGAAAACA | -0.033

Row | Sequence | PBM E-score
51 | AACACAAG | -0.165
52 | ACTTGTGA | -0.124
53 | AAGGTATG | -0.0602
54 | ATTCGAGA | -0.0455
55 | CGAAAACC | -0.0499
56 | AATATTAT | 0.217
57 | CGTTAACC | -0.0928
58 | GACTGAAA | -0.0895
59 | AGCCATCA | -0.0552
60 | GAGAAAGA | 0.0611
61 | TCTAGGAA | -0.25
62 | AACCATAC | -0.119
63 | TGACTACA | -0.262
64 | CAACTGCG | -0.174
65 | CTCCCTCC | 0.0444
66 | GAGCAAAA | -0.17
67 | CACTACGC | -0.218
68 | ATCCAGGA | -0.0717
69 | AGATACTA | 0.0852
70 | AGGCCCTA | -0.122
71 | GAACAGCC | -0.102
72 | ACATTCGG | 0.196
73 | CACTTGGA | -0.00267
74 | AGAGTCAC | -0.266
75 | ACTAGTAA | -0.135

Row | Sequence | PBM E-score
76 | CAGGTAGG | -0.141
77 | AGCATATC | 0.0261
78 | GCGTTTGA | -0.15
79 | AATATTGT | 0.0313
80 | AATCTAAC | -0.0674
81 | TAACCATA | -0.24
82 | ACTACGTA | -0.0178
83 | ACACCATA | -0.0235
84 | CCCATCTA | -0.0481
85 | ATGATCCA | -0.124
86 | GTAGATGA | 0.00924
87 | TGGATCCA | 0.096
88 | GGCGAAAC | 0.0538
89 | GATCCCAC | 0.105
90 | ATTTGCGC | 0.0546
91 | AATCTTAG | -0.115
92 | AGTGTTAT | 0.0195
93 | AAAGAGGG | -0.282
94 | CTGCCATA | 0.103
95 | AGCGCTAC | -0.215
96 | CATTCGTC | 0.0902
97 | GGTTGGCA | -0.184
98 | CTAAGTCA | -0.175
99 | CTACGTGA | -0.124
100 | CCCAACTA | -0.0324

Row | Sequence | PBM E-score
101 | CCCGAGAG | 0.0205
102 | AATTCGCC | 0.0278
103 | ATAGCTGC | 0.0774
104 | GCGGGCAA | 0.176
105 | GAGGGGCC | -0.179
106 | CTCCGCCA | 0.165
107 | CGATCCCG | 0.361
108 | TATGGTGA | -0.0424
109 | GCTCAGCC | -0.183
110 | GGGACCAA | 0.108
111 | CAAACTAA | 0.129
112 | AAGGATTC | 0.0418
113 | CCTTACAA | -0.0935
114 | AGTAGTAG | -0.08
115 | AATATACT | -0.0677
116 | ACTTGCCC | -0.107
117 | ATAGCCCA | 0.0524
118 | CCCCGCGA | 0.201
119 | CCCTGACA | -0.222
120 | CGGAGGTC | 0.29
121 | TACAACGA | -0.0462
122 | CAATTTGA | -0.0789
123 | GAGGACAA | -0.135
124 | AGCGTGGC | -0.0731
125 | CTGTCGGC | 0.172

Row | Sequence | PBM E-score
126 | CCAGCTGC | 0.00985
127 | GATTTGAC | -0.177
128 | AATCTATG | -0.0262
129 | ATAAGCTC | 0.042
130 | CGAAACCC | 0.0963
131 | ACACGCTG | -0.107
132 | CATAGTTA | -0.0733
133 | ACTTCGCT | -0.0552
134 | AGTACTCA | -0.244
135 | GTACCGGA | 0.318
136 | GGGGGTTA | -0.272
137 | CCGGGATA | 0.388
138 | CGCCGTCC | 0.115
139 | CTATGTGC | -0.00314
140 | CGGGCGAC | 0.158
141 | AGTCGTGA | -0.24
142 | CCGGTCTC | 0.18
143 | AGCATGCG | 0.00717
144 | ACTAGAGA | -0.0945
145 | CAAGTGTA | -0.154
146 | GCGCGCAA | 0.289
147 | CTACTATA | 0.136
148 | ACAAGGAA | 0.168
149 | ACAATCCC | 0.264
150 | AAGTTGGT | -0.0146

Row | Sequence | PBM E-score
151 | GACTGGTA | 0.106
152 | AGCACTTG | -0.255
153 | AAACGCAG | 0.00726
154 | AAGTTCAG | -0.098
155 | CGCTGACC | 0.108
156 | AGTTAAGA | -0.0801
157 | ACCTTCCC | 0.0674
158 | CTAGCACC | -0.136
159 | GGGGTTAC | -0.0554
160 | CTTGGACC | -0.243
161 | CGGGAATA | 0.331
162 | AGCAGAAC | -0.103
163 | GACCATAC | 0.12
164 | GGCGACCC | 0.116
165 | CGTATTGC | 0.0393
166 | ACGTTGGC | -0.237
167 | CGGTAGAG | 0.0223
168 | CGGCCCGC | 0.201
169 | AGGCTGGC | -0.272
170 | AGAAGCCT | -0.162
171 | GAGGTCGA | -0.0533
172 | GTGGATAA | 0.0146
